Results: PubChem BioAssay AID624417 (National Center for Advancing Translational Sciences (NCATS), 2012)
Several values for one entry are separate records, joined by “and”; a condition that tells them apart may be missing. Equal entries are not always repeated. Screen size: about 410,000 compounds; about 6,400 (1.6%) were called active. Inconclusive means that the source gave no clear call. Such entries were picked first, then a sample of the others. Calls come from the whole dose curve; as a rule, active = well fitted inhibition curve with a large enough effect; inconclusive = small, poorly fitted or top-dose-only effect; inactive = no such curve, though single readings can be large or run the other way. Where the call is inconclusive, the potency comes from a doubtful curve fit.

target: Glucagon-like peptide 1 receptor (Homo sapiens) (UniProt P43220); test: qHTS of GLP-1 Receptor Inverse Agonists (Inhibition Mode); conditions: HEK293 GLP-1R CRE-luciferase, luminescence, 24 h, GLP-1R form is constitutively active; activity change, negative = inhibition: at 38.3 µM (top of the series) unless noted; note: nearly all actives have a fitted effect of over 55% in size
Chain of UniProt P43220 (P43220 whole entry, looked up): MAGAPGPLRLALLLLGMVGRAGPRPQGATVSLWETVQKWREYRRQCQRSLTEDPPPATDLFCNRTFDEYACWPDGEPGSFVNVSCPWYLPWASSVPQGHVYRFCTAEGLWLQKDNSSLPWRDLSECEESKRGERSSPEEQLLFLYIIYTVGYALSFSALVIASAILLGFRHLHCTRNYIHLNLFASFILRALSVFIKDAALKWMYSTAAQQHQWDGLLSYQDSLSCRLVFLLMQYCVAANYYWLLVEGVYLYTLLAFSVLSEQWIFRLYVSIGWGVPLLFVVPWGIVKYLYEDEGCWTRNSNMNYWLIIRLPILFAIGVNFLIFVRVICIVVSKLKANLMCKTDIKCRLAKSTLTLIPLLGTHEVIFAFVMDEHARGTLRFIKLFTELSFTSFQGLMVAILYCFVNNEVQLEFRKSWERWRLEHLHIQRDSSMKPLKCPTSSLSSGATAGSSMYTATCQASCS
Summary of the method: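 qHTS in 1536-well format: reporter HEK293 cells expressing constitutive GLP-1R activity in DMEM + 10% Nu serum, 24 hr with compounds at 37 deg C, luminescence read after 12 min with detection reagent.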
% is set by controls: 0 for no effect and ±100 for the full control effect; potency is the fitted concentration of half-maximal effect; tags give direction and shape of the fitted curve.

SMILES	Potency	activity change, negative = inhibition
COc1ccc(C(=O)Nc2cccc(-c3cn4ccsc4n3)c2)c(OC)c1	inconclusive: 28.2 µM [inhibitor, single point]	
CC(C)C[C@H]1CNC(=S)N1CC1CCCN1C[C@H](CC(C)C)N1C[C@H](Cc2ccc(O)cc2)N(CC2CCCCC2)C1=S (stereo partly drawn)	inconclusive: 10 µM [inhibitor, partial curve, poor fit]	
CCOC(=O)C1=CCN(S(=O)(=O)c2ccc(Br)cc2)C1c1ccc(C)cc1 (stereo not drawn)	inconclusive: 11.2 µM [inhibitor, single point]	
COc1ccccc1CCNC(=O)c1ccc(Br)s1	inconclusive: 28.2 µM [inhibitor, single point]	
COc1cc(/C=N/NC(=O)C(=O)N2CCCCCC2)ccc1O		inactive: 13%
CCNc1ccc(C(=O)OCC)cc1NC(=O)c1cccc(N(C)C)c1	inconclusive: 1.41 µM [inhibitor, full curve, poor fit]	
COc1ccccc1CNC(=O)CCC(=O)N1CC(C)Sc2ccccc21 (stereo not drawn)	inconclusive: 11.2 µM [inhibitor, single point] and inconclusive: 10 µM [inhibitor, single point]	
CCC(c1nnnn1-c1ccc2c(c1)OCCO2)N1CCN(c2ncccc2C(F)(F)F)CC1 (stereo not drawn)	inconclusive: 28.2 µM [inhibitor, single point]	
CCOC(=O)c1c(NC(=O)Cc2ccccc2)sc2c1CC(C)(C)NC2(C)C	inconclusive: 28.2 µM [inhibitor, single point]	
COc1ccc(S(=O)(=O)NC2CCCC2)cc1Br	inconclusive: 12.6 µM [inhibitor, single point]	
c1ccc(-c2cn3ccccc3n2)cc1	inconclusive: 28.2 µM [inhibitor, single point]	
Cc1nc2ccn(Cc3cccs3)c(=O)c2cc1C(=O)NCc1ccc(Br)cc1	inconclusive: 2.24 µM [inhibitor, full curve]	
C/C(=N\NC(=S)Nc1cccc(C)c1)c1cccc(N)c1		inactive: 12.4%
C=CCNC(=O)c1onc(CSc2ccc(C(C)C)cc2)c1C(=O)O	inconclusive: 4.47 µM [inhibitor, full curve, poor fit]	
COc1ccc(-c2sc3cc(OC)c(OC)cc3c2-c2ccc(O)cc2)cc1	inconclusive: 8.91 µM [inhibitor, partial curve, poor fit]	
CCOC(=O)CSc1nnc(C2CCCCC2)n1C		inactive: 5.22%
O=C(NCCCl)Nc1ccccc1OCCOc1ccccc1NC(=O)NCCCl	inconclusive: 7.94 µM [inhibitor, partial curve, poor fit]	
COc1ccc(Br)cc1CNC(=O)c1ccc2c(c1)N(C)CCS2	inconclusive: 7.94 µM [inhibitor, partial curve, poor fit]	
COCCN1Cc2cc3cc(C)ccc3nc2SC1=Nc1ccc(OC)cc1	inconclusive: 28.2 µM [inhibitor, single point]	
CCOc1ccccc1N1CCN(C(=S)NC(=O)C23CC4CC(CC(C4)C2)C3)CC1	inconclusive: 10 µM [inhibitor, partial curve, poor fit]	
O=C1c2ccccc2S(=O)(=O)N1CC(O)Cn1c2ccccc2c2ccccc21 (stereo not drawn)	inconclusive: 10 µM [inhibitor, single point]	

SMILES	Potency	activity change, negative = inhibition
O=C(c1sccc1Cl)N1CCN(Cc2ccc3c(c2)OCO3)CC1	inconclusive: 3.98 µM [inhibitor, partial curve]	
Oc1ccc(-c2[nH]ncc2-c2ccc(Cl)cc2)c(O)c1		inactive: 0%
CC(C)Oc1ccc(CN2CCc3nc(Nc4ccc5c(c4)OCCO5)ncc3C2)cc1	inconclusive: 12.6 µM [inhibitor, partial curve, poor fit]	
COC(=O)c1ccc(NC(=O)CN2CCCN(Cc3ccc(Cl)cc3)S2(=O)=O)cc1	inconclusive: 28.2 µM [inhibitor, single point]	
CC(C)c1c(C(=O)N/N=C/C=C/c2ccccc2)nnn1-c1nonc1N	inconclusive: 11.2 µM [inhibitor, single point]	
COc1cc(C)c(C)cc1S(=O)(=O)n1c(C)nc2ccccc21	inconclusive: 2.82 µM [inhibitor, full curve, poor fit]	
O=C(Nc1ccc2c(c1)OCCO2)Nc1ccc2c(c1)OCO2	inconclusive: 12.6 µM [inhibitor, single point]	
Cc1cccc(C)c1NS(=O)(=O)c1cc2c3c(c1)CC(=O)N3CCC2	inconclusive: 2.82 µM [inhibitor, partial curve, poor fit]	
CC1CCN(C(=O)CSc2nc3ccccc3c(=O)n2Cc2ccc3c(c2)OCO3)CC1	inconclusive: 28.2 µM [inhibitor, single point]	
O=C(NC(=S)Nc1ccccc1Br)C1CCCC1	inconclusive: 11.2 µM [inhibitor, partial curve, poor fit]	
COc1ccc(Cn2nnnc2C(c2ccccn2)N2CCN(c3cc(Cl)ccc3C)CC2)cc1 (stereo not drawn)	inconclusive: 12.6 µM [inhibitor, partial curve, poor fit]	
CN(Cc1nc2ccccc2c(=O)[nH]1)C(=O)c1cccc(S(=O)(=O)N2CCc3ccccc32)c1	inconclusive: 2.82 µM [inhibitor, full curve, poor fit]	
NS(=O)(=O)c1ccc(CCNc2nn3c(-c4ccc(F)c(Cl)c4)cnc3s2)cc1		inactive: 9.34%
O=C(Cn1cccc1C(=O)c1ccccc1)NCCCc1ccccc1	inconclusive: 28.2 µM [inhibitor, single point]	
Cc1nn2c(N3CCOCC3)c3c(nc2c1-c1ccccc1)CCCC3	inconclusive: 2.51 µM [inhibitor, full curve, poor fit]	
Cc1nc(CS(=O)(=O)c2ccc(Cl)cc2)cc(Sc2ccccc2Cl)n1	inconclusive: 11.2 µM [inhibitor, partial curve, poor fit]	
COC(=O)[C@@]12C[C@@H](CC(=O)NCc3cccs3)C(=O)N(Cc3ccccc3)C1=CCC(C)(C)C2	inconclusive: 31.6 µM [inhibitor, single point]	
Cc1ccc2c(C)c(C(=O)NCC(C)(C)N3CCOCC3)oc2c1C	inconclusive: 2.82 µM [inhibitor, partial curve, poor fit]	
O=C(CSc1ccc(-c2cccs2)nn1)Nc1ccccc1	inactive	
Cc1cccc(NC(=O)CSc2ncc(-c3ccc(Br)cc3)[nH]2)c1		inactive: -24%
Cc1ccc(CN(Cc2ccco2)C(=O)c2ccc(Cl)cc2Cl)cc1	active: 12.6 µM	

SMILES	Potency	activity change, negative = inhibition
O=C(NNc1ncnc2c1cnn2-c1cccc(Cl)c1)c1ccco1		inactive: 2.34%
Cc1cccc(-c2nc(CCNC(=O)COc3ccccc3)cs2)c1		inactive: 13%
COc1ccc(CC(=O)N2N=C(c3ccncc3)CC2(O)C(F)(F)F)cc1 (stereo not drawn)	inconclusive: 3.98 µM [inhibitor, partial curve, poor fit]	
CCc1cccc(C)c1Nc1c(-c2ccc(SC)cc2)nc2sccn12	inconclusive: 22.4 µM [inhibitor, single point]	
COc1ccc(S(=O)(=O)c2c(Nc3c(C)cccc3C)sc(C(=O)c3ccc(F)cc3)c2N)cc1	inconclusive: 3.16 µM [inhibitor, full curve, poor fit]	
CCC(=O)Nc1nc(C)c(-c2csc(Nc3cccc(O)c3)n2)s1	inconclusive: 4.47 µM [inhibitor, full curve]	
COC(=O)c1ccccc1NC(=O)C1=CC(c2ccc3c(c2)OCO3)=NS(=O)(=O)N1C		inactive: 2.14%
Cc1ccc2c(Cl)c(C(=O)NCCCn3ccnc3)sc2c1	inconclusive: 1.78 µM [inhibitor, full curve, poor fit]	
Fc1ccc(-c2noc3ncnc(Nc4ccc(F)cc4F)c23)cc1		inactive: 4%
O=C(CC1N=C2c3ccccc3N=C(SCc3ccc(F)cc3)N2C1=O)NC1CCCCC1 (stereo not drawn)		inactive: 0.807%
CCCn1c2ccccc2c2cnn(CC(=O)NC3CCN(Cc4ccccc4)CC3)c(=O)c21	inconclusive: 31.6 µM [inhibitor, partial curve, poor fit]	
O=C(Nc1ccncc1)Nc1ccc(F)c(Cl)c1	inconclusive: 11.2 µM [inhibitor, partial curve, poor fit]	
COc1ccc(NC(=S)Nc2cc(C)ccn2)c(OC)c1		inactive: -14%
Cc1ccnc(Nc2nc(-c3ccc(O)cc3O)cs2)c1	inconclusive: 28.2 µM [inhibitor, single point]	
CCOC(=O)c1c(NC(=O)CN2CCCCC2)sc2c1CCN(C(=O)OCC)C2	inconclusive: 10 µM [inhibitor, partial curve, poor fit]	
Cc1cccc2sc(NC(=O)C3CCN(S(=O)(=O)c4cc([N+](=O)[O-])ccc4Cl)CC3)nc12	inconclusive: 8.91 µM [inhibitor, partial curve, poor fit]	
Cc1ccc(C)c(NC(=O)CN(C)S(=O)(=O)c2cccc3cccnc23)c1	inactive	
COc1cccc2cc(-c3csc(NC(=O)CCC(=O)NCCCN4CCC(C)CC4)n3)c(=O)oc12	inconclusive: 8.91 µM [inhibitor, partial curve, poor fit]	
Cc1ccc(CNC(=O)c2ccccc2SCC(=O)NCC2CCCCC2)cc1	inconclusive: 3.16 µM [inhibitor, partial curve, poor fit]	
S=C(Cc1ccccc1)NCCc1ccccc1	inconclusive: 22.4 µM [inhibitor, single point]	
CCOC(=O)C1CCCN(c2nc3ccccc3nc2C(C#N)C(=O)NCc2ccccc2)C1 (stereo not drawn)	inconclusive: 22.4 µM [inhibitor, partial curve, poor fit]	
